Blank lines part the entries; values can stand above or below the binder they belong to.
Key:
[1] = target: T1, Human PD1, Sino Biological Cat #: HPLC-10377-H08H (human, UniProt Q15116 fragment); test: BLI (Octet RED96), antibody captured on the sensor, antigen in solution, 1:1 model
T1 construct: Bought; also called PD-1 (Octet antigen)
Procedure: (§1) Binding experiments were performed on Octat Red af 25″° C. The human antibodies were loaded onto Anti-higG Fe Capture biosensors and the mouse antibodies were loaded onto Anti-migG Fe Capture biosensors both for 300 seconds. The ligand loaded sensors were dipped into a 3-fold series dilution (starting at 300 nad) of the antigens (PD-1 and KIR3DL3) for 240 seconds followed by dissociation for 400 seconds. Kinetic constanta were calculated using a monovalent (1:1) binding model Antigen: Haman PD1, Sino Biological Cat #: HPLC-10377-HOSH.

[2] = target: T2, Human KIR3DL3, Sino Biological Cat#: 16055-H08H (human, UniProt Q8N743 26-322); test: as above
T2 construct: Bought soluble antigen; also called KIR3DL3 (Octet antigen)
Procedure: as §1

T2 sequence (Q8N743 other isoform, or with tags, fused parts or gaps H08H H08H limits assumed): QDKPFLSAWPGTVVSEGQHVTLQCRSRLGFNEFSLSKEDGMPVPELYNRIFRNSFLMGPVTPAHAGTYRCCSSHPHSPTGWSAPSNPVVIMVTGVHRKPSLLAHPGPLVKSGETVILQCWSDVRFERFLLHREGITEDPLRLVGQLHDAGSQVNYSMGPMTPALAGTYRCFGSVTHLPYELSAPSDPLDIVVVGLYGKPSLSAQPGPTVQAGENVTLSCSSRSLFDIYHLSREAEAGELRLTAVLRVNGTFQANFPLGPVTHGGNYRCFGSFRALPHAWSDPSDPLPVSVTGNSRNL
T1 sequence (Q15116 25-167 limits assumed): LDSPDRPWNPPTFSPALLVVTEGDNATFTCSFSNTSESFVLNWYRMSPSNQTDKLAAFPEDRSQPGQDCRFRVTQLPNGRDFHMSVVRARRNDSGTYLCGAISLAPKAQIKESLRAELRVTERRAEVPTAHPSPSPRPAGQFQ

Kd [1]: 31.6 nM
koff [1]: 0.00341 s⁻¹
kon [1]: 108000 M⁻¹ s⁻¹
B1: PD-1 scFv (EH13), human IgG4 (S228P) Fc (scFv)
scFv: [no letters for human IgG4 Fc with S228P (EU numbers)]GGGGAGGGGEVKLVESGGGLVQPGGSLKLSCAASGFTFSSFTLSWVRQTPEKRLEWVAYISYGGADTYYPDTVKGRFTIFRDNAKNTLYLQMSSLKSEDTARYYCARHGPYGKGDYYAMDYWGQGTSVTVSSGGGGSGGGGSGGGGSDIVLTQSPASLAVSLGQRATISCRASESVDDFGISFMNWFQQKPGQPPKLLIFAASKQGSGVPARFSGSGSGTDFSLNIHPMEEDDTAMYFCQQSKEVPWTFGGVTKLEIK
notes: One chain as printed: human IgG4 Fc, linker, VH, (G4S)3 linker, VL; Signal peptide placeholder left out; also called LP PD-1 scFv (TP-31852); EH13 scFV

Kd [2]: 0.268 nM
koff [2]: 4.42e-05 s⁻¹
kon [2]: 165000 M⁻¹ s⁻¹
B2: KIR3DL3 scFv (2F11), human IgG4 (S228P) Fc (scFv)
scFv: [no letters for human IgG4 Fc with S228P (EU numbers)]GGGGAGGGGDVQLVESGGGLVQPGGSRKLSCAASGFTFSYFGMHWVRRAPEKGLEWVAFISSDSTTIYYTDTVKGRFTISRDNPKNTLFLQMTSLRSEDTAIYYCARFYDGAMDYWGQGTSVTVSTGGGGSGGGGSGGGGSDIVMTQSQKFMSTSVGDRVSITCKASQSVRTAVAWYQQKPGQSPKVLIYLASNRHTGVPDRFTGSGSGTDFTLTISNVQSEDLADYFCLQHWNYPLTFGAGTKLELK
notes: One chain as printed: human IgG4 Fc, linker, VH, (G4S)3 linker, VL; Signal peptide placeholder left out; also called LP KIR3DL3 scFv (TP-31853); KIR3DL3 mAb 2F11 scFV
